Test: label from the status in PepcDB records

Sequence | protein production
DIVMTQSPDSLAVSLGERATINCKSSQSVLYSSNSKNYLAWYQQKPGQPPKLLIYWASTRESGVPDRFSGSGSGTDFTLTISSLQAEDVAVYYCQQYYSTPYSFGQGTKLEIKR | not failed
MEEIQQQQQQQQQQQQQQQQQQQQQQELTQEQIMEFKEAFCLFDKDGDGCITADELATVIRSLDQNPTEQELQDMITEIDSDGNGTIEFSEFLNLMANQLQETDADEELKEAFKVFDKDQNGYISASELRHVMINLGEKLTDEEVDQMIKEADLDGDGQVNYDEFVRMMMING | failed
MPRSLKKGVFVDDHLLEKVLELNAKGEKRLIKTWSRRSTIVPEMVGHTIAVYNGKQHVPVYITENMVGHKLGEFAPTRTYRGHGKEAKATKKK | not failed
